# Laboratory results from the supplement of paper PMC8728848.
# Some of the results follow.
# B1: Cohesin-marm-DC-ASGPR-CRD (protein)
# chain: LDITSHHHHHHDDLDAVRIKVDTVNAKPGDTVRIPVRFSGIPSKGIANCDFVYSYDPNVLEIIEIEPGDIIVDPNPDKSFDTAVYPDRKIIVFLFAEDSGTGAYAITKDGVFATIVAKVKEGAPNGLSVIKFVEVGGFANNDLVEQKTQFFDGGVNVGDTTEPATPTTPVTTPTTTDDLDAASCPINWVEHQGSCYWFSRSGKTWPEAERYCQLENTHLVVINSREEQNFVQAHLGSAYTWMGLSDPEGVWKWVDGTDYSSGFQNWKPGQPDDWQGHGLGGGEDCAHFHPDGRWNDDVCQRSYHWVCEAGLTQASQDSH
# Tests used:
# Test in all cases: glycan array binding signal (z-score within array); higher = stronger binding
# Conditions in all cases: glycan notation: IUPAC condensed, linker removed
# [1] = molecular target: Fuc(a1-2)[Gal(a1-3)]Gal(b1-4)GlcNAc(b1-2)Man(a1-3)[Fuc(a1-2)[Gal(a1-3)]Gal(b1-4)GlcNAc(b1-2)Man(a1-6)]Man(b1-4)GlcNAc(b1-4)[Fuc(a1-6)]GlcNAc
# Outline: (§1)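 The Consortium for Functional Glycomics database supplied 3228 glycan arrays, of which those lacking an available protein sequence were dropped. The binding signal, a within-array Z-score, was averaged across arrays of the same protein sequence and across linkers. Negative scores can be read as non-binding.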
# [2] = molecular target: Fuc(a1-2)[Gal(a1-3)]Gal(b1-4)GlcNAc(b1-3)GalNAc
# Outline: as §1
# [3] = molecular target: Fuc(a1-2)[Gal(a1-3)]Gal(b1-4)GlcNAc(b1-3)[Fuc(a1-2)[Gal(a1-3)]Gal(b1-4)GlcNAc(b1-6)]GalNAc
# Outline: as §1
# [4] = molecular target: Fuc(a1-2)[Gal(a1-3)]Gal(b1-4)GlcNAc(b1-6)GalNAc
# Outline: as §1
# [5] = molecular target: Fuc(a1-2)[Gal(a1-3)]Gal(b1-4)[Fuc(a1-3)]Glc
# Outline: as §1
# [6] = molecular target: Fuc(a1-2)[Gal(a1-3)]Gal(b1-4)[Fuc(a1-3)]GlcNAc
# Outline: as §1
# [7] = molecular target: Fuc(a1-2)[Gal(a1-3)]Gal(b1-4)[Fuc(a1-3)]GlcNAc(b1-3)GalNAc
# Outline: as §1
# [8] = molecular target: Fuc(a1-2)[Gal(a1-4)]Gal(b1-4)GlcNAc
# Outline: as §1
# [9] = molecular target: Fuc(a1-2)[GalNAc(a1-3)]Gal
# Outline: as §1
# [10] = molecular target: Fuc(a1-2)[GalNAc(a1-3)]Gal(b1-3)GalNAc(a1-3)[Fuc(a1-2)]Gal(b1-4)GlcNAc
# Outline: as §1
# [11] = molecular target: Fuc(a1-2)[GalNAc(a1-3)]Gal(b1-3)GalNAc(b1-3)Gal(a1-4)Gal(b1-4)Glc
# Outline: as §1
# [12] = molecular target: Fuc(a1-2)[GalNAc(a1-3)]Gal(b1-3)GlcNAc
# Outline: as §1
# [13] = molecular target: Fuc(a1-2)[GalNAc(a1-3)]Gal(b1-3)GlcNAc(b1-2)Man(a1-3)[Fuc(a1-2)[GalNAc(a1-3)]Gal(b1-3)GlcNAc(b1-2)Man(a1-6)]Man(b1-4)GlcNAc(b1-4)GlcNAc
# Outline: as §1
# [14] = molecular target: Fuc(a1-2)[GalNAc(a1-3)]Gal(b1-3)GlcNAc(b1-2)Man(a1-3)[Fuc(a1-2)[GalNAc(a1-3)]Gal(b1-3)GlcNAc(b1-2)Man(a1-6)]Man(b1-4)GlcNAc(b1-4)[Fuc(a1-6)]GlcNAc
# Outline: as §1
# [15] = molecular target: Fuc(a1-2)[GalNAc(a1-3)]Gal(b1-3)GlcNAc(b1-3)GalNAc
# Outline: as §1
# [16] = molecular target: Fuc(a1-2)[GalNAc(a1-3)]Gal(b1-3)GlcNAc(b1-6)GalNAc
# Outline: as §1
# [17] = molecular target: Fuc(a1-2)[GalNAc(a1-3)]Gal(b1-4)Glc
# Outline: as §1
# [18] = molecular target: Fuc(a1-2)[GalNAc(a1-3)]Gal(b1-4)GlcNAc
# Outline: as §1
# [19] = molecular target: Fuc(a1-2)[GalNAc(a1-3)]Gal(b1-4)GlcNAc(b1-2)Man
# Outline: as §1
# [20] = molecular target: Fuc(a1-2)[GalNAc(a1-3)]Gal(b1-4)GlcNAc(b1-2)Man(a1-3)[Fuc(a1-2)[GalNAc(a1-3)]Gal(b1-4)GlcNAc(b1-2)Man(a1-6)]Man(b1-4)GlcNAc(b1-4)GlcNAc
# Outline: as §1
# [21] = molecular target: Fuc(a1-2)[GalNAc(a1-3)]Gal(b1-4)GlcNAc(b1-2)Man(a1-3)[Fuc(a1-2)[GalNAc(a1-3)]Gal(b1-4)GlcNAc(b1-2)Man(a1-6)]Man(b1-4)GlcNAc(b1-4)[Fuc(a1-6)]GlcNAc
# Outline: as §1
# [22] = molecular target: Fuc(a1-2)[GalNAc(a1-3)]Gal(b1-4)GlcNAc(b1-3)Gal(b1-4)GlcNAc
# Outline: as §1
# [23] = molecular target: Fuc(a1-2)[GalNAc(a1-3)]Gal(b1-4)GlcNAc(b1-3)Gal(b1-4)GlcNAc(b1-3)Gal(b1-4)GlcNAc
# Outline: as §1
# [24] = molecular target: Fuc(a1-2)[GalNAc(a1-3)]Gal(b1-4)GlcNAc(b1-3)GalNAc
# Outline: as §1
# [25] = molecular target: Fuc(a1-2)[GalNAc(a1-3)]Gal(b1-4)GlcNAc(b1-3)[Fuc(a1-2)[GalNAc(a1-3)]Gal(b1-4)GlcNAc(b1-6)]GalNAc
# Outline: as §1
# [26] = molecular target: Fuc(a1-2)[GalNAc(a1-3)]Gal(b1-4)GlcNAc(b1-6)GalNAc
# Outline: as §1
# [27] = molecular target: Fuc(a1-2)[GalNAc(a1-3)]Gal(b1-4)[Fuc(a1-3)]GlcNAc
# Outline: as §1
# [28] = molecular target: Fuc(a1-2)[GalNAc(a1-3)]Gal(b1-4)[Fuc(a1-3)]GlcNAc(b1-3)GalNAc
# Outline: as §1
# [29] = molecular target: Fuc(a1-2)[GalNAc(a1-4)]Gal(b1-4)GlcNAc
# Outline: as §1
# [30] = molecular target: Fuc(a1-2)[GalNAc(b1-3)]Gal
# Outline: as §1
# Fuc(a1-3)GlcNAc = molecular target: Fuc(a1-3)GlcNAc
# Outline: as §1
# [31] = molecular target: Fuc(a1-3)[Gal(b1-4)]Glc6S
# Outline: as §1
# [32] = molecular target: Fuc(a1-3)[Gal(b1-4)]GlcNAc
# Outline: as §1
# [33] = molecular target: Fuc(a1-3)[Gal(b1-4)]GlcNAc(b1-2)Man
# Outline: as §1
# [34] = molecular target: Fuc(a1-3)[Gal(b1-4)]GlcNAc(b1-2)Man(a1-3)[Fuc(a1-3)[Gal(b1-4)]GlcNAc(b1-2)Man(a1-6)]Man(b1-4)GlcNAc(b1-4)GlcNAc
# Outline: as §1
# [35] = molecular target: Fuc(a1-3)[Gal(b1-4)]GlcNAc(b1-2)Man(a1-3)[Fuc(a1-3)[Gal(b1-4)]GlcNAc(b1-2)Man(a1-6)]Man(b1-4)GlcNAc(b1-4)[Fuc(a1-6)]GlcNAc
# Outline: as §1
# [36] = molecular target: Fuc(a1-3)[Gal(b1-4)]GlcNAc(b1-3)Gal(b1-3)[Fuc(a1-4)]GlcNAc
# Outline: as §1
# [37] = molecular target: Fuc(a1-3)[Gal(b1-4)]GlcNAc(b1-3)Gal(b1-4)[Fuc(a1-3)]GlcNAc
# Outline: as §1
# [38] = molecular target: Fuc(a1-3)[Gal(b1-4)]GlcNAc(b1-3)Gal(b1-4)[Fuc(a1-3)]GlcNAc(b1-3)Gal(b1-4)[Fuc(a1-3)]GlcNAc
# Outline: as §1
# [39] = molecular target: Fuc(a1-3)[Gal(b1-4)]GlcNAc(b1-3)GalNAc
# Outline: as §1
# [40] = molecular target: Fuc(a1-3)[Gal(b1-4)]GlcNAc(b1-6)GalNAc
# Outline: as §1
# [41] = molecular target: Fuc(a1-3)[Gal(b1-4)]GlcNAc(b1-6)[Gal(b1-3)GlcNAc(b1-3)]Gal(b1-4)Glc
# Outline: as §1
# [42] = molecular target: Fuc(a1-3)[Gal(b1-4)]GlcNAc6S
# Outline: as §1
# [43] = molecular target: Fuc(a1-3)[Gal3S(b1-4)]Glc
# Outline: as §1
# [44] = molecular target: Fuc(a1-3)[Gal3S(b1-4)]GlcNAc
# Outline: as §1
# [45] = molecular target: Fuc(a1-3)[Gal3S(b1-4)]GlcNAc6S
# Outline: as §1
# [46] = molecular target: Fuc(a1-3)[GalNAc(b1-4)]GlcNAc
# Outline: as §1
# [47] = molecular target: Fuc(a1-3)[GalNAc(b1-4)]GlcNAc6S
# Outline: as §1
# Fuc(a1-4)GlcNAc = molecular target: Fuc(a1-4)GlcNAc
# Outline: as §1
# Fuc(b1-3)GlcNAc = molecular target: Fuc(b1-3)GlcNAc
# Outline: as §1
# Gal(a1-2)Gal = molecular target: Gal(a1-2)Gal
# Outline: as §1
# Gal(a1-3)Gal = molecular target: Gal(a1-3)Gal
# Outline: as §1
# Gal(a1-3)Gal(b1-3)GlcNAc = molecular target: Gal(a1-3)Gal(b1-3)GlcNAc
# Outline: as §1
# [48] = molecular target: Gal(a1-3)Gal(b1-3)GlcNAc(b1-2)Man
# Outline: as §1
# [49] = molecular target: Gal(a1-3)Gal(b1-3)GlcNAc(b1-2)Man(a1-3)[Gal(a1-3)Gal(b1-3)GlcNAc(b1-2)Man(a1-6)]Man(b1-4)GlcNAc(b1-4)GlcNAc
# Outline: as §1
# [50] = molecular target: Gal(a1-3)Gal(b1-3)GlcNAc(b1-3)GalNAc
# Outline: as §1
# [51] = molecular target: Gal(a1-3)Gal(b1-3)GlcNAc(b1-6)GalNAc
# Outline: as §1
# [52] = molecular target: Gal(a1-3)Gal(b1-3)[Fuc(a1-4)]GlcNAc(b1-2)Man(a1-3)[Gal(a1-3)Gal(b1-3)[Fuc(a1-4)]GlcNAc(b1-2)Man(a1-6)]Man(b1-4)GlcNAc(b1-4)GlcNAc
# Outline: as §1
# Gal(a1-3)Gal(b1-4)Glc = molecular target: Gal(a1-3)Gal(b1-4)Glc
# Outline: as §1
# Gal(a1-3)Gal(b1-4)GlcNAc = molecular target: Gal(a1-3)Gal(b1-4)GlcNAc
# Outline: as §1
binder,measurement,setting,value
B1,glycan array binding signal (z-score),[1],-0.307
same,glycan array binding signal (z-score),[2],-0.441
same,glycan array binding signal (z-score),[3],-0.357
same,glycan array binding signal (z-score),[4],-0.449
same,glycan array binding signal (z-score),[5],-0.44
same,glycan array binding signal (z-score),[6],-0.428
same,glycan array binding signal (z-score),[7],-0.432
same,glycan array binding signal (z-score),[8],-0.423
same,glycan array binding signal (z-score),[9],2.69
same,glycan array binding signal (z-score),[10],3.71
same,glycan array binding signal (z-score),[11],2.5
same,glycan array binding signal (z-score),[12],2.96
same,glycan array binding signal (z-score),[13],2.42
same,glycan array binding signal (z-score),[14],0.785
same,glycan array binding signal (z-score),[15],1.43
same,glycan array binding signal (z-score),[16],2.04
same,glycan array binding signal (z-score),[17],1.96
same,glycan array binding signal (z-score),[18],2.22
same,glycan array binding signal (z-score),[19],2.33
same,glycan array binding signal (z-score),[20],2.46
same,glycan array binding signal (z-score),[21],1.32
same,glycan array binding signal (z-score),[22],2.91
same,glycan array binding signal (z-score),[23],2.99
same,glycan array binding signal (z-score),[24],0.983
same,glycan array binding signal (z-score),[25],2.49
same,glycan array binding signal (z-score),[26],2.6
same,glycan array binding signal (z-score),[27],3.78
same,glycan array binding signal (z-score),[28],-0.306
same,glycan array binding signal (z-score),[29],2.61
same,glycan array binding signal (z-score),[30],2.51
same,glycan array binding signal (z-score),Fuc(a1-3)GlcNAc,-0.345
same,glycan array binding signal (z-score),[31],-0.407
same,glycan array binding signal (z-score),[32],-0.396
same,glycan array binding signal (z-score),[33],-0.448
same,glycan array binding signal (z-score),[34],-0.413
same,glycan array binding signal (z-score),[35],-0.357
same,glycan array binding signal (z-score),[36],-0.447
same,glycan array binding signal (z-score),[37],-0.413
same,glycan array binding signal (z-score),[38],-0.4
same,glycan array binding signal (z-score),[39],-0.459
same,glycan array binding signal (z-score),[40],2.63
same,glycan array binding signal (z-score),[41],-0.446
same,glycan array binding signal (z-score),[42],-0.448
same,glycan array binding signal (z-score),[43],-0.423
same,glycan array binding signal (z-score),[44],-0.379
same,glycan array binding signal (z-score),[45],-0.454
same,glycan array binding signal (z-score),[46],2.57
same,glycan array binding signal (z-score),[47],2.91
same,glycan array binding signal (z-score),Fuc(a1-4)GlcNAc,-0.349
same,glycan array binding signal (z-score),Fuc(b1-3)GlcNAc,-0.405
same,glycan array binding signal (z-score),Gal(a1-2)Gal,-0.364
same,glycan array binding signal (z-score),Gal(a1-3)Gal,-0.418
same,glycan array binding signal (z-score),Gal(a1-3)Gal(b1-3)GlcNAc,0.082
same,glycan array binding signal (z-score),[48],-0.433
same,glycan array binding signal (z-score),[49],-0.346
same,glycan array binding signal (z-score),[50],-0.415
same,glycan array binding signal (z-score),[51],2.92
same,glycan array binding signal (z-score),[52],-0.156
same,glycan array binding signal (z-score),Gal(a1-3)Gal(b1-4)Glc,-0.398
same,glycan array binding signal (z-score),Gal(a1-3)Gal(b1-4)GlcNAc,-0.421
